According to the supplement of paper PMC4967469:
Lines with a small IC50 respond at low doses; a limit (>, <) means that the fit lies beyond the doses tested. For AUC the same curve is integrated over the 256-fold range of doses and scaled to a fraction: 1 means no effect, lower means more sensitive. For part of these data: Any top dose called inferred was derived from the fitted curves, not read from the paper. For part of these data: An entry number marks a drug with two screens in the source, which often give different values.

How the values were obtained:
PAC-1 = compound: C=CCc1cccc(/C=N/NC(=O)CN2CCN(Cc3ccccc3)CC2)c1O [PAC-1]; assay: Viability of human cancer cell lines after 72 h of drug (GDSC screen); conditions: top dose 2.56 µM
Experimental: (§1)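 Human cancer cell lines in 384-well plates, medium with 10% serum, drug for 72 h over a 256-fold dose range (nine 2-fold or five 4-fold steps up to the top dose). Adherent lines were fixed and stained with the nucleic acid dye Syto60, suspension lines read with resazurin; signal relative to control wells, capped at 0 and 100%. One two-parameter sigmoid per drug and line, fitted in a mixed model over all curves with the slope shared within a line.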

BMS-708163 = compound: NC(=O)[C@@H](CCC(F)(F)F)N(Cc1ccc(-c2ncon2)cc1F)S(=O)(=O)c1ccc(Cl)cc1 [BMS-708163]; assay: as above; conditions: top dose 5 µM; screen: GDSC drug entry 1072; top dose inferred
Experimental: as §1

| Cell Line | AUC (PAC-1) | IC50 (PAC-1) | AUC (BMS-708163) | IC50 (BMS-708163) |
| --- | --- | --- | --- | --- |
| NCI-H2170 (lung squamous cell carcinoma, adherent) | 0.849 | 2060 nM | 0.985 | > 5 µM |
| NCI-H838 (lung adenocarcinoma, adherent) | 0.968 | > 2560 nM | 0.921 | > 5 µM |
| HT-1197 (bladder, adherent) | 0.967 | > 2560 nM | 0.93 | > 5 µM |
| Hs939-T (melanoma, adherent) | 0.966 | > 2560 nM | 0.985 | > 5 µM |
| PCI-4B (head and neck, adherent) | 0.831 | 1510 nM | 0.984 | > 5 µM |
| NCI-H2291 (lung adenocarcinoma, adherent) | 0.977 | > 2560 nM | 0.944 | > 5 µM |
| NCI-H2087 (lung adenocarcinoma, semi-adherent) | 0.911 | > 2560 nM | 0.986 | > 5 µM |
| NCI-H647 (non-small cell lung carcinoma, adherent) | 0.948 | > 2560 nM | 0.982 | > 5 µM |
| IHH-4 (thyroid, semi-adherent) | 0.982 | > 2560 nM | 0.989 | > 5 µM |
| NCI-H520 (lung squamous cell carcinoma, adherent) | 0.943 | > 2560 nM | 0.962 | > 5 µM |
| WM278 (melanoma, adherent) | 0.924 | > 2560 nM | 0.965 | > 5 µM |
| MG-63 (osteosarcoma, adherent) | 0.97 | > 2560 nM | 0.933 | > 5 µM |
| J82 (bladder, adherent) | 0.848 | 1900 nM | 0.955 | > 5 µM |
| NCI-H2172 (non-small cell lung carcinoma, adherent) | 0.854 | > 2560 nM | 0.982 | > 5 µM |
| KMRC-1 (kidney, adherent) | 0.984 | > 2560 nM | 0.987 | > 5 µM |
| NCI-H2444 (non-small cell lung carcinoma, adherent) | 0.976 | > 2560 nM | 0.988 | > 5 µM |
| KP-3 (pancreas, adherent) | 0.848 | 2480 nM | 0.972 | > 5 µM |
| CAL-54 (kidney, adherent) | 0.794 | 1380 nM | 0.941 | > 5 µM |
| NCI-H1563 (lung adenocarcinoma, adherent) | 0.956 | > 2560 nM | 0.985 | > 5 µM |
| NCI-H1573 (lung adenocarcinoma, adherent) | 0.986 | > 2560 nM | 0.978 | > 5 µM |
| TYK-nu (ovary, adherent) | 0.974 | > 2560 nM | 0.981 | > 5 µM |
| KYSE-510 (oesophagus, adherent) | 0.872 | 1760 nM | 0.991 | > 5 µM |
| SK-HEP-1 (liver, adherent) | 0.987 | > 2560 nM | 0.949 | > 5 µM |
| HLE (liver, adherent) | 0.902 | > 2560 nM | 0.974 | > 5 µM |

| Cell Line | AUC (PAC-1) | IC50 (PAC-1) | AUC (BMS-708163) | IC50 (BMS-708163) |
| --- | --- | --- | --- | --- |
| NCI-H358 (lung adenocarcinoma, adherent) | 0.811 | 1550 nM | 0.96 | > 5 µM |
| NCI-H522 (lung adenocarcinoma, adherent) | 0.905 | > 2560 nM | 0.972 | > 5 µM |
| NCI-H1435 (lung adenocarcinoma, semi-adherent) | 0.993 | > 2560 nM | 0.991 | > 5 µM |
| KYSE-520 (oesophagus, adherent) | 0.933 | > 2560 nM | 0.915 | > 5 µM |
| 451Lu (melanoma, adherent) | 0.989 | > 2560 nM | 0.984 | > 5 µM |
| KYSE-180 (oesophagus, adherent) | 0.903 | > 2560 nM | 0.985 | > 5 µM |
| OE19 (oesophagus, adherent) | 0.964 | > 2560 nM | 0.954 | > 5 µM |
| BICR22 (head and neck, adherent) | 0.978 | > 2560 nM | 0.981 | > 5 µM |
| C3A (liver, adherent) | 0.976 | > 2560 nM | 0.981 | > 5 µM |
| H2591 (mesothelioma, adherent) | 0.958 | > 2560 nM | 0.972 | > 5 µM |
| SW948 (large intestine, adherent) | 0.98 | > 2560 nM | 0.967 | > 5 µM |
| JHU-011 (head and neck, adherent) | 0.849 | 1870 nM | 0.978 | > 5 µM |
| PFSK-1 (medulloblastoma, adherent) | 0.961 | > 2560 nM | 0.895 | > 5 µM |
| CAMA-1 (breast, adherent) | 0.802 | 1650 nM | 0.972 | > 5 µM |
| COLO-678 (large intestine, semi-adherent) | 0.978 | > 2560 nM | 0.983 | > 5 µM |
| PC-3 (prostate, adherent) | 0.982 | > 2560 nM | 0.937 | > 5 µM |
| FU-OV-1 (ovary, adherent) | 0.971 | > 2560 nM | 0.947 | > 5 µM |
| huH-1 (liver, adherent) | 0.972 | > 2560 nM | 0.966 | > 5 µM |
| HPAC (pancreas, adherent) | 0.859 | > 2560 nM | 0.813 | 4.2 µM |
| PL4 (pancreas, adherent) | 0.986 | > 2560 nM | 0.973 | > 5 µM |
| SKG-IIIa (cervix, adherent) | 0.979 | > 2560 nM | 0.979 | > 5 µM |
| NCI-H1781 (lung adenocarcinoma, adherent) | 0.96 | > 2560 nM | 0.989 | > 5 µM |
| COLO-680N (oesophagus, adherent) | 0.895 | > 2560 nM | 0.975 | > 5 µM |
| PC-14 (lung adenocarcinoma, adherent) | 0.961 | > 2560 nM | 0.951 | > 5 µM |

| Cell Line | AUC (PAC-1) | IC50 (PAC-1) | AUC (BMS-708163) | IC50 (BMS-708163) |
| --- | --- | --- | --- | --- |
| NCI-H292 (lung adenocarcinoma, adherent) | 0.907 | > 2560 nM | 0.87 | > 5 µM |
| MDA-MB-468 (breast, adherent) | 0.987 | > 2560 nM | 0.966 | > 5 µM |
| HARA (lung squamous cell carcinoma, adherent) | 0.95 | > 2560 nM | 0.961 | > 5 µM |
| VMRC-MELG (melanoma, adherent) | 0.913 | > 2560 nM | 0.98 | > 5 µM |
| SK-MEL-28 (melanoma, adherent) | 0.927 | > 2560 nM | 0.984 | > 5 µM |
| IPC-298 (melanoma, adherent) | 0.97 | > 2560 nM | 0.98 | > 5 µM |
| NCI-H2029 (small cell lung carcinoma, adherent) | 0.992 | > 2560 nM | 0.989 | > 5 µM |
| M14 (melanoma, adherent) | 0.977 | > 2560 nM | 0.952 | > 5 µM |
| LU-135 (small cell lung carcinoma, suspension) | 0.883 | 1930 nM | 0.991 | > 5 µM |
| DK-MG (glioma, adherent) | 0.957 | > 2560 nM | 0.927 | > 5 µM |
| NCI-H2347 (lung adenocarcinoma, adherent) | 0.822 | 1940 nM | 0.959 | > 5 µM |
| DMS-53 (small cell lung carcinoma, adherent) | 0.981 | > 2560 nM | 0.913 | > 5 µM |
| NCI-H3122 (lung adenocarcinoma, adherent) | 0.901 | > 2560 nM | 0.938 | > 5 µM |
| SKN-3 (head and neck, adherent) | 0.983 | > 2560 nM | 0.945 | > 5 µM |
| NUGC-4 (stomach, adherent) | 0.957 | > 2560 nM | 0.981 | > 5 µM |
| HCC1419 (breast, adherent) | 0.875 | > 2560 nM | 0.926 | > 5 µM |
| IM-95 (stomach, adherent) | 0.867 | > 2560 nM | 0.986 | > 5 µM |
| KOSC-2 (head and neck, adherent) | 0.981 | > 2560 nM | 0.944 | > 5 µM |
| BCPAP (thyroid, adherent) | 0.934 | > 2560 nM | 0.964 | > 5 µM |
| SiHa (cervix, adherent) | 0.987 | > 2560 nM | 0.974 | > 5 µM |
| IGR-37 (melanoma, adherent) | 0.981 | > 2560 nM | 0.989 | > 5 µM |
| CCK-81 (large intestine, adherent) | 0.923 | > 2560 nM | 0.986 | > 5 µM |
| SK-MEL-30 (melanoma, adherent) | 0.925 | > 2560 nM | 0.982 | > 5 µM |
| C-33-A (cervix, adherent) | 0.97 | > 2560 nM | 0.983 | > 5 µM |

| Cell Line | AUC (PAC-1) | IC50 (PAC-1) | AUC (BMS-708163) | IC50 (BMS-708163) |
| --- | --- | --- | --- | --- |
| ECC10 (stomach, suspension) | 0.833 | 1760 nM | 0.98 | > 5 µM |
| A431 (skin, adherent) | 0.906 | > 2560 nM | 0.966 | > 5 µM |
| SK-MEL-3 (melanoma, adherent) | 0.873 | > 2560 nM | 0.974 | > 5 µM |
| HT55 (large intestine, adherent) | 0.987 | > 2560 nM | 0.971 | > 5 µM |
| SUIT-2 (pancreas, adherent) | 0.8 | 1310 nM | 0.977 | > 5 µM |
| WM-115 (melanoma, adherent) | 0.956 | > 2560 nM | 0.95 | > 5 µM |
| MIA-PaCa-2 (pancreas, adherent) | 0.984 | > 2560 nM | 0.977 | > 5 µM |
| HO-1-N-1 (head and neck, adherent) | 0.976 | > 2560 nM | 0.98 | > 5 µM |
| CHSA0011 (chondrosarcoma, adherent) | 0.977 | > 2560 nM | 0.98 | > 5 µM |
| G-361 (melanoma, adherent) | 0.8 | 1180 nM | 0.953 | > 5 µM |
| OAW-28 (ovary, adherent) | 0.976 | > 2560 nM | 0.948 | > 5 µM |
| NCI-H1755 (lung adenocarcinoma, adherent) | 0.982 | > 2560 nM | 0.926 | > 5 µM |
| AsPC-1 (pancreas, adherent) | 0.94 | > 2560 nM | 0.881 | > 5 µM |
| HCT-116 (large intestine, adherent) | 0.984 | > 2560 nM | 0.907 | > 5 µM |
| PL18 (pancreas, adherent) | 0.966 | > 2560 nM | 0.969 | > 5 µM |
| C32 (melanoma, adherent) | 0.986 | > 2560 nM | 0.975 | > 5 µM |
| HCC-827 (lung adenocarcinoma, adherent) | 0.984 | > 2560 nM | 0.967 | > 5 µM |
| OVCAR-3 (ovary, adherent) | 0.809 | 1500 nM | 0.985 | > 5 µM |
| EN (endometrium, adherent) | 0.977 | > 2560 nM | 0.977 | > 5 µM |
| NCI-H460 (large cell lung carcinoma, adherent) | 0.896 | > 2560 nM | 0.968 | > 5 µM |
| CAL-120 (breast, adherent) | 0.97 | > 2560 nM | 0.98 | > 5 µM |
| H2731 (mesothelioma, adherent) | 0.984 | > 2560 nM | 0.977 | > 5 µM |
| NCI-H2452 (mesothelioma, adherent) | 0.979 | > 2560 nM | 0.941 | > 5 µM |
| LK-2 (lung squamous cell carcinoma, adherent) | 0.893 | > 2560 nM | 0.954 | > 5 µM |
